# Laboratory results reported in publication PMC4336329 (PLoS ONE, 2015).
# The whole screen tested about 310,000 compounds, of which about 2,200 (0.71%) showed an effect of 50% or more. Effects have a minus sign here. This is one part of the list.
# Biological target: human ether-à-go-go-related gene (hERG) potassium channel (human, UniProt Q12809)
# Assay: primary screen, population patch clamp on CHO cells stably expressing hERG
# Chain of human ether-à-go-go-related gene (hERG) potassium channel (Q12809 whole entry, looked up): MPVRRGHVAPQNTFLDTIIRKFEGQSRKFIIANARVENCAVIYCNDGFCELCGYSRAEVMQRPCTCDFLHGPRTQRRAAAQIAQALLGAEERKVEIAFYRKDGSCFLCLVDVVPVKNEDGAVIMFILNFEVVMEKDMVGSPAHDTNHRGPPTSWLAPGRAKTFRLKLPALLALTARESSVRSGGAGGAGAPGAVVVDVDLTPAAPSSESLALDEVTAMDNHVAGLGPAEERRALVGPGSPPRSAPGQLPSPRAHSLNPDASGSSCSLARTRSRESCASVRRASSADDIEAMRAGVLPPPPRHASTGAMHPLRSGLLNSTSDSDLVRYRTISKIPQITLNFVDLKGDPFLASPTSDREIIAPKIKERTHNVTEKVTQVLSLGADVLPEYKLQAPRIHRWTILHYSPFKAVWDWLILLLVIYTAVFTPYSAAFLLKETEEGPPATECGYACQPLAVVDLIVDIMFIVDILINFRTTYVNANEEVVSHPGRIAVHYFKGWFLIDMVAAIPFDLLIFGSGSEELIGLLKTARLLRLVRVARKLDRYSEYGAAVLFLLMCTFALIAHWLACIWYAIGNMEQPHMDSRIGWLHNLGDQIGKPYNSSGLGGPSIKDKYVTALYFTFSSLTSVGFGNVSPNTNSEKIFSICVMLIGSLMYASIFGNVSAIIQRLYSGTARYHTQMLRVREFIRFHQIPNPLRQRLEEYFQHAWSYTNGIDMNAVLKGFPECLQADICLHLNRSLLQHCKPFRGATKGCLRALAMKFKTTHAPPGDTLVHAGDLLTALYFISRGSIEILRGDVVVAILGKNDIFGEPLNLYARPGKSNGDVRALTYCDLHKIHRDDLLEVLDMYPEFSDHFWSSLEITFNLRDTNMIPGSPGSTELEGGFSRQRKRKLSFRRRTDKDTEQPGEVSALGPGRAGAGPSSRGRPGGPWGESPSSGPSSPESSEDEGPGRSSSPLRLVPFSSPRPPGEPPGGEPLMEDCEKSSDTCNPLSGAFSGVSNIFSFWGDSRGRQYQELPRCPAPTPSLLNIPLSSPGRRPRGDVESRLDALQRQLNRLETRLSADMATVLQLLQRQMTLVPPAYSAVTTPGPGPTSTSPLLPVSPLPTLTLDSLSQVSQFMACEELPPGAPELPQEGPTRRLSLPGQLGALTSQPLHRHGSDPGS
row,Structure (SMILES),"hERG current change (%, negative = inhibition) at 1uM [%]"
1,CCc1ccc(NC(=O)CSc2nnc(Cn3c(=O)sc4ccccc43)n2C)cc1,2.68
2,O=C(NCCN1CCCCC1)c1ccc(Cl)nc1Cl,12
3,CC(C)=CCCC1(C)C=Cc2c(c(C)cc3c2[nH]c2cc(O)ccc23)O1 (stereo not shown),15.7
4,O=Cc1cn(-c2ccccc2)nc1-c1ccccn1,8.46
5,O=C(NC(=S)NNC(=O)c1ccccc1O)c1cccc([N+](=O)[O-])c1,22.3
6,Cc1ccccc1-n1nc2c(c1NC(=O)c1ccc(Br)o1)CSC2,0.781
7,O=C(Nc1cccc(F)c1)C1CCN(c2nnnn2-c2ccccc2)CC1,9.34
8,Fc1ccc(Nc2c3c(nc4ccccc24)CCC3)cc1,-12.7
9,CC(C)c1cccc(C(C)C)c1NC(=O)c1ccccc1,17.1
10,C=C(C)CSc1nnc(-c2cc(OC)c(OC)c(OC)c2)n1N,17.1
11,CC(Oc1ccccc1C(N)=O)C(=O)Nc1ccc(S(=O)(=O)N2CCCC2)cc1 (stereo not shown),-0.652
12,Cc1cc(C)cc(NC(=O)CCN2C(=O)c3ccccc3C2=O)c1,14.2
13,Cc1ccc(/C(N)=N/OC(=O)c2ccc(C)cc2Cl)cc1,12.1
14,CC1(C)CC(=O)C=C(C(=O)N2CCCC(C(=O)c3cccc(C(F)(F)F)c3)C2)O1 (stereo not shown),1.78
15,CCN1CCC(=NNC(=O)CC23CC4CC(CC(C4)C2)C3)CC1,11.5
16,CCC(C)(C)NC(=O)Cn1c(-c2ccccc2)cc(C(C)=O)c1C,13.6
17,Cc1onc(-c2c(Cl)cccc2Cl)c1C(=O)N1CCOCC1,12.7
18,O=C(/C=C/c1cccnc1)c1cc(F)ccc1O,8.59
19,O=C(COC(=O)CCc1nc2ccccc2c(=O)[nH]1)Nc1ccc(OC(F)(F)F)cc1,9.24
20,O=S(=O)(Nc1cccc(S(=O)(=O)N2CCOCC2)c1)c1cccs1,21.5
21,CCc1ccc2nc(N(CCCN(C)C)C(=O)c3ccc(C(=O)c4ccccc4)cc3)sc2c1.Cl,5.9
22,COc1ccccc1CNC(=O)CN1C(=O)N(C)C2(CCCCC2)C1=O,13.8

row,Structure (SMILES),"hERG current change (%, negative = inhibition) at 1uM [%]"
1,COc1ccc(/C=N/n2cncn2)cc1Cn1nc(C)c([N+](=O)[O-])c1C,-8.84
2,COc1ccc(S(=O)(=O)N2CCCOC2CNC(=O)C(=O)NCCc2ccco2)cc1OC (stereo not shown),0.943
3,COc1ccc(-c2cn(Cc3ccc(C(=O)c4ccccc4)cc3)nn2)cc1,9.65
4,CC(=O)Nc1ccc(S(=O)(=O)NNC(=O)C(=O)NNc2ccccn2)cc1,6.91
5,CCOC(=O)CN(C(=O)CSc1nnc(C)n1-c1ccccc1)c1ccccc1,10.8
6,COc1ccc(-n2c(C)cc(C(=O)CSc3nnc(-c4ccoc4C)n3C)c2C)cc1,6.26
7,O=C(CCCN1C(=O)c2ccccc2C1=O)Nc1c(C(=O)C2CC2)oc2ccccc12,9.19
8,CCN(CC)C(=O)CN(c1cccc(Br)c1)S(C)(=O)=O,7.56
9,COC(=O)c1cc(CSc2nc3ccccc3[nH]2)oc1C,14.1
10,Cc1occc1C(=O)NCCc1ccc(Cl)cc1,5.04
11,CC(OC(=O)c1cccnc1Cl)C(=O)Nc1ccc2c(c1)OCCO2 (stereo not shown),0.0837
12,COC(=O)c1ccc(C2/C(=C(/O)c3ccc(OC)cc3)C(=O)C(=O)N2CC2CCCO2)cc1 (stereo not shown),7.22
13,COc1cccc(COC(=O)c2c(C)nn(-c3ccccc3)c2Cl)c1OC,6.79
14,O=C(c1ccco1)N1CCN(C(=O)C2Cc3ccccc3CN2S(=O)(=O)c2ccc(F)cc2)CC1 (stereo not shown),-21.4
15,CC1CCCN(CC(O)COc2ccc(Cl)cc2)C1.Cl (stereo not shown),-32.2
16,Cc1cc(C)c(C)c(S(=O)(=O)N2CCC(C(=O)NCCCN3CCCC3=O)CC2)c1C,-42.5
17,CCCCOC(=O)Nc1ccc(S(=O)(=O)Nc2onc(C)c2C)cc1,14.1
18,Cn1c(=O)[nH]c(=O)c2[nH]c(CN3CCN(Cc4ccccc4)CC3)nc21,8.43
19,O=C(O/N=C(/c1ccccc1)c1ccncc1)c1cccc(F)c1,19.1
20,CCn1cc(C(=O)NCCCOC(C)C)c(=O)c2cc(S(=O)(=O)N3CCCC3)ccc21,6.17
21,COc1ccc(N2CCN(C(=O)C3CCCN(S(=O)(=O)c4c(C)noc4C)C3)CC2)cc1 (stereo not shown),-6.44
22,CCS(=O)(=O)N1CCN(Cc2ccncc2)CC1.O=C(O)C(=O)O,16.4

row,Structure (SMILES),"hERG current change (%, negative = inhibition) at 1uM [%]"
1,CCOC(=O)C1(Cc2cccc(F)c2)CCN(Cc2c(C)nn(CC)c2C)CC1,-14.3
2,Cc1cc(-c2cccs2)n[nH]1,11.7
3,Cc1cc(C(=O)NN=C2CCCC2)c2ccccc2n1,9.77
4,CCOc1ccc(/C=N/NC(=O)c2nnn(-c3nonc3N)c2COc2ccc(F)cc2)cc1,14.4
5,CC(=O)C1=C(O)C(=O)N(c2cccc(C(=O)O)c2)C1c1ccc(F)cc1 (stereo not shown),13.8
6,CN(C)/N=C/c1ccc(OS(=O)(=O)c2ccccc2)cc1,14.1
7,COC(=O)c1cccc(NC(=O)CSc2nnc(COc3ccc(C#N)cc3)n2-c2ccccc2)c1,-17.5
8,O=C(Cc1ccsc1)Nc1ccccc1F,12.1
9,O=c1[nH]c(CN2CCN(S(=O)(=O)c3cccs3)CC2)nc2c(Br)cc(Br)cc12,0.89
10,Cc1ccnc(NS(=O)(=O)c2ccc(NC(=O)Cc3c(F)cccc3Cl)cc2)n1,9.04
11,Cc1nc2ccccc2n1CC(=O)NC(C)C1CC2CCC1C2 (stereo not shown),12.4
12,N#C/C(=C\c1ccc(-c2cccc(C(F)(F)F)c2)o1)C(=O)Nn1cnnc1,6.23
13,Cc1ccc(/C=C2\C(=N)N3N=C(CC(=O)N4CCCCC4)SC3=NC2=O)cc1,13.6
14,CCN(CC(N)=O)S(=O)(=O)c1ccc(Br)cc1,8.54
15,Cc1cccc(NC(=O)COC(=O)c2cccc3c2C(=O)c2ccccc2C3=O)c1C,-0.0605
16,CC(C)(C)NC(=O)NC(=O)COC(=O)C1CC(=O)N(Cc2ccccc2)C1 (stereo not shown),13.2
17,CC(=O)OCC1=C(C(=O)O)N2C(=O)C(NC(=O)C(C)Cn3nc(C)c(Cl)c3C)C2SC1 (stereo not shown),4.29
18,C=CCn1c(SCC(=O)C(C)(C)C)nnc1-c1ccccn1,6.06
19,CN(C)c1cc[nH]c(=O)c1C#N,11.8
20,CCNc1ccc(S(=O)(=O)N(C)C)cc1NCC(=O)Nc1ccccc1F,-10
21,C=CCOc1ccn(C)c(=O)n1,2.71
22,O=C(NCc1ccco1)c1ccc([N+](=O)[O-])o1,15.5

row,Structure (SMILES),"hERG current change (%, negative = inhibition) at 1uM [%]"
1,COc1ccc(-c2nc(C#N)c(NC(C)c3ccccc3)o2)cc1OC (stereo not shown),4.38
2,O=C(O)c1cccc([N+](=O)[O-])c1C(=O)Nc1cccc2ccccc12,17
3,O=C(NCCSCc1ccco1)c1ccc(=O)[nH]c1,17.9
4,O=C(CCN1C(=O)[C@@H]2Cc3ccccc3CN2C1=O)NCCc1ccccc1,4.01
5,CN(C)S(=O)(=O)N1CCC(Oc2cccc(C(=O)NC3CCCCCC3)c2)CC1,4.06
6,O=CN1CCN(CC(O)Cn2c3ccccc3c3ccccc32)CC1 (stereo not shown),-2.21
7,O=C(Nc1cc(C(F)(F)F)ccc1N1CCOCC1)C1=COCCO1,8.41
8,COc1ccccc1NC(=O)N1CCCC1C(=O)Nc1ccc2c(c1)OCO2 (stereo not shown),2.76
9,O=c1c2ccccc2ncn1Cc1ccco1,-3.55
10,O=C(NCCN1CCOCC1)C(=O)NCC1OCCCN1S(=O)(=O)c1cc(F)ccc1F (stereo not shown),12.9
11,CSc1sccc1/C=C(/C#N)C(=O)c1ccco1,5.92
12,CC(=O)Nc1nnc(CCS(=O)(=O)c2ccc(C)cc2)s1,7
13,O=C(CNC(=O)c1ccccc1)OCc1nc2ccccc2s1,11
14,CSc1ccc(C(=O)C2CCCN(C(=O)c3cc(C)n(C)n3)C2)cc1 (stereo not shown),9.61
15,N#CCCN(C(=O)COC(=O)c1ccc2c(=O)n3c(nc2c1)CCC3)c1ccccc1,11.6
16,O=C(c1ccco1)c1nc2c(n1O)CCCCC2,-5.65
17,COCCCNc1oc(COc2ccc(Cl)cc2Cl)nc1C#N,13.6
18,CCCCNC(=O)CSc1nc(Cc2ccccc2)nc2ccccc12,-0.302
19,CC(=O)c1ccc(S(=O)(=O)Nc2ccccc2C(=O)NC2CC2)cc1,9.72
20,CN(Cc1ccco1)C(=O)c1ccc(OC2CCN(Cc3ccccn3)CC2)cc1,4.06
21,Clc1ccc(C[n+]2cc(-c3ccccc3)n3c2CCC3)cc1Cl.[Cl-],-2.44
22,COc1ccc(N2C(=NC(=O)C3CCCCC3)SC3CS(=O)(=O)CC32)cc1OC (stereo not shown),-8.06
